# Whole data set: some 110,000 compounds, median “z-score” near -0.1, cut for the highest 2% near 2. Some of the results follow.
# Target: Metabotropic glutamate receptor 8 (Rattus norvegicus) (UniProt P70579)
# Test: mGluR8 Gi/Go-coupled signaling modulation – cell-based, rat, thallium flux, HTS, primary screen (AID 488969)
# Details: HEK293 rat mGluR8, GIRK (G protein-gated inwardly rectifying potassium channel) thallium flux, FluoZin2; at 10 µM; stronger effect = higher value; submaximal glutamate (EC20) added with thallium
# Sequence of UniProt P70579 (P70579 whole entry, looked up): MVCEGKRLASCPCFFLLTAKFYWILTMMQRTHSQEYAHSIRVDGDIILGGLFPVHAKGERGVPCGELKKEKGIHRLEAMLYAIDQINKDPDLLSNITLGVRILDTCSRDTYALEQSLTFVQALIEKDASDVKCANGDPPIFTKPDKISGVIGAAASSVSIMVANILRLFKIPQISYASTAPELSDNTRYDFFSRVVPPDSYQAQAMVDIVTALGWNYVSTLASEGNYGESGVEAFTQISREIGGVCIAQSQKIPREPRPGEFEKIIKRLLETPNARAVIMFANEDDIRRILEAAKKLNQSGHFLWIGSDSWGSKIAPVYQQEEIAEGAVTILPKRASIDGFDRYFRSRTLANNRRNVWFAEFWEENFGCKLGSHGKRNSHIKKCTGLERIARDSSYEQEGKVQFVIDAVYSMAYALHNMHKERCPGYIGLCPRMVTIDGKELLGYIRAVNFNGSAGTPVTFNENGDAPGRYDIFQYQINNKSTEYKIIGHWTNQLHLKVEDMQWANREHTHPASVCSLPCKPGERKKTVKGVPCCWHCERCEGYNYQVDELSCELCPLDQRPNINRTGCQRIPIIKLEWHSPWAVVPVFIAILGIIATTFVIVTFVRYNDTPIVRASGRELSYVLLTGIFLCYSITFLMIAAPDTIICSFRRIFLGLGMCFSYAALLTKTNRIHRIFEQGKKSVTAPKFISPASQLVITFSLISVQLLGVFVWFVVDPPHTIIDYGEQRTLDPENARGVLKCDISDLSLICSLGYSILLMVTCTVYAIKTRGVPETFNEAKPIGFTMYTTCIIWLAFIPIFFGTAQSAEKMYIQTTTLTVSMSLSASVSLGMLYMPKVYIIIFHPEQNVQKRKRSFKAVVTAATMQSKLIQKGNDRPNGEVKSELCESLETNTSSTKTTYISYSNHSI
row,SMILES,z-score
1,COC(=O)/C=c1/s/c(=C(/C#N)C(=O)N2CCCCC2)n(-c2ccccc2)c1=O,-0.333
2,O=C(NCC(O)c1ccccc1)c1cccc(S(=O)(=O)N2CCOCC2)c1 (stereo unspecified),0.795
3,CCOCCCNC(=O)C1CCC(=O)N1CCc1ccccc1 (stereo unspecified),0.278
4,Cc1cnc(NC(=O)CSc2nnc(C)s2)s1,-0.32
5,CCn1c2ccccc2c2cc(C3N=C(N)Nc4nc5ccccc5n43)ccc21 (stereo unspecified),0.109
6,Cc1ccc(NC(=O)c2ccc(-n3cccn3)c([N+](=O)[O-])c2)cc1C,-0.168
7,Cc1ccccc1N(C)C(=O)c1coc(=O)c2ccccc12,0.0832
8,CCOc1ccc(CNC(=S)NCc2ccc(OCC)cc2)cc1,-0.199
9,CCOC(=O)c1ccc(NC(=O)CSc2nnc(C3CC3)n2C)cc1,0.599
10,CCN(CC)C(=O)c1sc2nc(-c3cccs3)cc(-c3ccc(Cl)cc3)c2c1N,-1.31
11,CCCOc1ccc(C(C)=O)cc1CSc1nc(O)cc(=O)[nH]1,0.000135
12,CC(=O)/C(=N/Nc1ccccc1)Sc1nnc(CCc2ccccc2)n1-c1ccccc1,-0.689
13,O=C(Cn1cc(C(F)(F)F)ccc1=O)N/N=C/c1ccc(Cl)cc1,0.495
14,COc1ccc(-c2nnc(NC(=O)CSc3ccccc3)s2)cc1OC,0.0532
15,Cc1noc(/C=C/c2ccco2)c1S(=O)(=O)N1CCC(C(=O)N2CCc3ccccc3C2)CC1,-0.148
16,Cn1nnnc1SCC(=O)Nc1nc2c(s1)CCCC2,-0.0232

row,SMILES,z-score
1,CC1(C)Cc2ccccc2-c2nc(-c3ccccc3)oc(=O)c21,0.322
2,CC(=O)Nc1sc(N/N=C\c2ccccc2Cl)nc1-c1cccs1,0.325
3,CCCS(=O)(=O)c1snnc1C,0.254
4,c1csc(COc2ccccc2CNC2CCCCC2)c1,0.159
5,COc1ccccc1NC(=O)NS(=O)(=O)c1ccc(C)cc1,0.149
6,COc1cc(NC(=O)COC(=O)CSc2ccccc2F)c(C)cc1[N+](=O)[O-],-0.914
7,O=C(CC(NS(=O)(=O)c1ccc(Cl)cc1)c1ccco1)NCc1cccnc1 (stereo unspecified),-0.194
8,Cc1cc(OCC(=O)NCCN2CCOCC2)ccc1Br,-0.0883
9,O=C(NC1CCCC1)C1CCCN1S(=O)(=O)c1cccc2cccnc12 (stereo unspecified),-0.119
10,O=C(C1CC1(c1ccccc1)c1ccccc1)N1CCOCC1 (stereo unspecified),0.816
11,O=C(O)C1CCCCC1C(=O)Nc1ccc2c(c1)CCC2 (stereo unspecified),-0.0401
12,CCOC(=O)c1c(NC(=O)Cn2c(C)nc3ccccc32)sc2c1CCC2,-0.172
13,COC(=O)c1ccc(NC(=O)CSc2n[nH]c(-c3ccncc3)n2)cc1,0.78
14,Cc1cccc(C(=O)Nc2nnc(-c3ccc(C(C)(C)C)cc3)s2)c1,0.412
15,CC(=O)OC(C)(CCC(C)(OC(C)=O)C(C)=O)C(C)=O (stereo unspecified),-0.269
